# In PubChem BioAssay AID493005 (National Center for Advancing Translational Sciences (NCATS), 2010):
# Out of some 340,000 compounds screened, fewer than 10 were called active. The inconclusive results got no clear call from the source; some entries with a clear call stand among them for comparison. Calls follow the shape of the dose curve; as a rule, active = well fitted inhibition curve with a large enough effect in the main read-out, with a control signal flat (not every such curve was filed as active); inconclusive = small, poorly fitted or top-dose-only effect, or effect the other way, or a change in a side signal; inactive = no such curve, though single readings can be large or run the other way. Potencies of inconclusive entries are doubtful fits and often do not repeat. A note “side channel” means that the fit belongs to a control or component signal, not to the main read-out.
# Molecular target: Tumor susceptibility gene 101 protein (Homo sapiens) (UniProt Q99816)
# Chain of UniProt Q99816 (Q99816 whole entry, looked up): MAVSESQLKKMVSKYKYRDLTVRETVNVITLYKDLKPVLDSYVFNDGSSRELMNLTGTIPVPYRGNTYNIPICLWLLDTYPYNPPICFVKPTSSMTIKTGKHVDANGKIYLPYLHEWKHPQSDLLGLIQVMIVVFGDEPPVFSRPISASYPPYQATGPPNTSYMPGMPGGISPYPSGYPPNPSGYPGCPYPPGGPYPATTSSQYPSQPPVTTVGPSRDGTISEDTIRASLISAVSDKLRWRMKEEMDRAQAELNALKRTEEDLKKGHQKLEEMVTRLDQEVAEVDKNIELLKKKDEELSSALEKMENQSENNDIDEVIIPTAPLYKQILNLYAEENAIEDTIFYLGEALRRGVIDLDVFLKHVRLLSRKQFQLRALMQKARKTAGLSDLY
# Test: qHTS Assay for Iinhibitors of HIV-1 Budding by Blocking the Interaction of PTAP/TSG101; as to activity change, negative = inhibition: % of control where 0% means no effect
# Settings: Fluorescence polarization, FITC-PTAP peptide / Tsg101 binding; activity change, negative = inhibition: at 115 µM (top of the series)
# In short: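 Compounds were pin-transferred onto Tsg101 binding domain (10 uM final) in HEPES pH 7.5 buffer, then FITC-PTAP peptide was added at 50 nM final. After 20 min at RT, polarization reported peptide displacement across a qHTS concentration series.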
# Potency is read from the fitted curve at half-maximal effect; tags tell the direction and shape of the fitted curve or compound fluorescence and quenching.
Structure (SMILES),Potency,"activity change, negative = inhibition"
C/C(=N\Nc1ccc([N+](=O)[O-])cc1)c1ccc(-n2nncc2C)cc1,"inconclusive: 89.1 µM [fluorescent, side channel, single point]",–
c1ccc(-c2noc(-c3cccc4ccccc34)n2)nc1,–,inactive: -7.06%
CCSC1=N/C(=C\C=C2/Oc3ccccc3N2CC)C(=O)S1,"inconclusive: 56.2 µM [fluorescent, partial curve, poor fit]",–
COc1ccc(-c2noc(N3CCC(C(=O)NCc4ccc(Cl)cc4)CC3)n2)cc1,"inconclusive: 79.4 µM [quencher, side channel, partial curve, poor fit]",–
COC(=O)c1cc(NC(=O)c2ccccc2)c(=O)oc1/C=C/Nc1ccc(Oc2ccccc2)cc1,"inconclusive: 12.6 µM [fluorescent, side channel, full curve]",–
O=c1cc(CN2CCCc3ccccc32)nc2sccn12,"inconclusive: 79.4 µM [fluorescent, side channel, partial curve]",–
COc1ccc2oc(-c3ccco3)cc(=O)c2c1,–,inactive: 0.0725%
COc1ccc(-c2cnc3c(c2)CCC3(C#N)C#N)cc1,–,inactive: -10.7%
CCCCOc1ccc2c(c1)/C(=C(\C(Cl)=C(Cl)Cl)[N+](=O)[O-])N2,"inconclusive: 56.2 µM [fluorescent, side channel, partial curve, poor fit]",–
CCc1ccc(CN2C(=O)CCC2(C)C(=O)NC2CCCC2)cc1 (centres undefined),–,inactive: -1.65%
CCN(CC)c1ccc2cc(C(=O)Nc3ccccn3)c(=O)oc2c1,"inconclusive: 50.1 µM [fluorescent, side channel, partial curve, poor fit]",–
COc1ncnc2c1NC1=C(S2)C(=NCCC(=O)O)CC(C)(C)C1,"inconclusive: 56.2 µM [fluorescent, side channel, partial curve, poor fit]",–
Cc1cccc(NC(=O)c2ccc(NCCc3ccccc3)c([N+](=O)[O-])c2)c1,"inconclusive: 50.1 µM [fluorescent, side channel, partial curve, poor fit]",–
O=c1c(/C=C(\O)c2ccc(F)cc2)nc2ccccc2n1-c1ccccc1,"inconclusive: 79.4 µM [fluorescent, side channel, partial curve]",–
C/C(=N\Nc1ccc([N+](=O)[O-])cc1)c1ccc(-n2nncc2C(C)(C)C)cc1,"inconclusive: 50.1 µM [fluorescent, side channel, partial curve, poor fit]",–
CC(C)n1c(=O)c2c(O)cc(=O)oc2c2ccccc21,–,inactive: -0.0872%
O=C(c1cc2nc(-c3ccccc3)cc(-c3ccccc3)n2n1)N1CCN(C(=O)c2ccco2)CC1,–,inactive: -2.81%
Cc1cc(/C=C2\NC(=S)N(C)C2=O)ccc1N1CCCC1,"inconclusive: 20 µM [fluorescent, side channel, full curve, poor fit]",–
C/C(N)=C(/C#N)C(=O)CSc1ncnc2ccccc12,"inconclusive: 89.1 µM [falling, single point]",–
C#CCOCCOCCOCCNc1nc(N2CCN(C(=O)CCCCCCCCCCNC(=O)[C@@H](CCSC)n3cc(CCO)nn3)CC2)nc(N2CCN(C(=O)CCCCCCCCCCNC(=O)[C@H]([C@@H](C)CC)n3cc(CCCCN=C(N)N)nn3)CC2)n1,"inconclusive: 89.1 µM [fluorescent, side channel, single point]",–

Structure (SMILES),Potency,"activity change, negative = inhibition"
NC(=O)[C@@H]1[C@@H]2C(=O)N(c3ccc(F)cc3)C(=O)[C@@H]2[C@H]2C=Cc3ccccc3N21,"inconclusive: 89.1 µM [fluorescent, side channel, partial curve, poor fit]",–
O=C(O)c1ccccc1-c1ccc(/C=C/c2cc(C(F)(F)F)[nH]c(=O)n2)o1,"inconclusive: 39.8 µM [fluorescent, side channel, partial curve]",–
CC(C)c1ccc(C(=O)NCCCNC(=O)c2cnccn2)cc1,"inconclusive: 12.6 µM [fluorescent, side channel, partial curve, poor fit]",–
COc1cc2c3nnc(-c4ccc(F)cc4)c-3cn(Cc3cccc(C)c3)c2cc1OC,"inconclusive: 79.4 µM [fluorescent, side channel, partial curve, poor fit]",–
COc1cc(NC(=O)COC(=O)CNC(=O)C2CCCCC2)cc(OC)c1,"inconclusive: 25.1 µM [fluorescent, side channel, single point]",–
CCOc1ccc(NC(=O)/C(C#N)=C/c2ccc(N3CCCC3)c(C)c2)cc1,"inconclusive: 50.1 µM [fluorescent, side channel, partial curve, poor fit]",–
CCOC(=O)CC1C(=O)NCCN1c1nc2c(C)cccn2c(=O)c1/C=C1\SC(=S)N(C(C)CC)C1=O (centres undefined),"inconclusive: 14.1 µM [fluorescent, side channel, full curve]",–
CCOC(=O)CC(=O)CSc1nc(-c2cccnc2)ccc1C#N,"inconclusive: 39.8 µM [fluorescent, side channel, partial curve, poor fit]",–
Cc1ccc2nc(-c3ccc(NC(=S)NC(=O)C(C)C)cc3)sc2c1,–,inactive: -0.156%
O=c1c2cnn(-c3ccccc3)c2nc(-c2cccs2)n1-c1cccc(Cl)c1,–,inactive: 1.4%
N#C/C(=C\c1ccc(-c2ccc(C(=O)O)cc2)o1)c1nc2ccccc2[nH]1,"inconclusive: 50.1 µM [fluorescent, side channel, partial curve, poor fit]",–
COc1ccccc1/C=C1\SC(=S)N(CCC(=O)NC2=NCCS2)C1=O,"inconclusive: 89.1 µM [fluorescent, side channel, single point]",–
COc1cc(C(=O)NCCC(C)C)ccc1OCc1ccc(Cl)cc1Cl,–,inactive: -2.84%
Cc1cccc2cc3c(N)c(C(=O)N4CCCc5ccccc54)sc3nc12,"inconclusive: 56.2 µM [fluorescent, side channel, partial curve, poor fit]",–
O=c1c2ccccc2nnn1Cc1ccccc1Cl,–,inactive: -2.31%
NC(=O)c1sc(=S)n(-c2ccc(Br)cc2)c1N,"inconclusive: 56.2 µM [fluorescent, side channel, partial curve, poor fit]",–
Cc1cc(C)c(/C=C2\C(=O)Nc3ccccc32)[nH]1,"inconclusive: 50.1 µM [fluorescent, side channel, partial curve, poor fit]",–
CC(=O)Nc1ccc(N2C(=O)c3cccc4c(O)ccc(c34)C2=O)cc1,"inconclusive: 50.1 µM [fluorescent, side channel, partial curve]",–
CCCc1nnc(NC(=O)c2cc3ccccc3oc2=O)s1,–,inactive: -0.0583%
c1ccc2c(c1)CCCN2Cc1nnc2n1CCCCC2,"inconclusive: 56.2 µM [falling, partial curve, poor fit]",–

Structure (SMILES),Potency,"activity change, negative = inhibition"
CCCOc1ccc(C(=O)Nc2nc(C)c(Cc3ccc4c(c3)OCO4)s2)cc1,–,inactive: -0.798%
CCN(CC)c1ccc(/C=C/C(=O)c2ccc(Br)cc2)cc1,"inconclusive: 56.2 µM [fluorescent, side channel, partial curve, poor fit]",–
O=C(c1cc(COc2ccc(F)cc2Cl)on1)N1CCSCC1,–,inactive: -5.14%
O=C(C1=C(O)C(=O)N(c2nccs2)C1c1ccccc1)c1cc2ccccc2o1 (centres undefined),"inconclusive: 100 µM [fluorescent, side channel, partial curve, poor fit]",–
COC(=O)c1c(NC(=O)CC2Nc3cc(C)c(C)cc3NC2=O)sc(C)c1C (centres undefined),"inconclusive: 50.1 µM [fluorescent, side channel, partial curve, poor fit]",–
Cc1ccnc(SCc2nc3ccccc3s2)n1,–,inactive: -3.53%
CCN1/C(=C/C=C/c2sc3ccccc3[n+]2CC)Sc2ccccc21,–,inactive: -0.536%
CC(=O)c1ccc2c3c(cccc13)C(=O)N(CCc1ccccc1)C2=O,"inconclusive: 79.4 µM [quencher, side channel, partial curve, poor fit]",–
Cc1nc2c(ccc3nc(NC(=O)Cc4cccc5ccccc45)sc32)s1,–,inactive: 0.591%
S=c1[nH]nc(-c2ccccn2)n1/N=C/c1ccc(Cl)c(Cl)c1,–,inactive: -3.75%
Oc1ccc2ccccc2c1-c1sc(Nc2ccccc2)n[n+]1-c1ccc(F)cc1,"inconclusive: 50.1 µM [fluorescent, side channel, partial curve, poor fit]",–
COc1ccccc1CNC(=O)c1cc(S(=O)(=O)N2CCN(c3ccccc3)CC2)ccc1Cl,–,inconclusive: -15.7% [phenotype inactive]
CCOc1ccc(NC(=O)C(Cc2ccccc2)N2C(=O)c3cccc4cccc(c34)C2=O)cc1 (centres undefined),"inconclusive: 44.7 µM [fluorescent, side channel, partial curve]",–
NC(=O)CSc1ccc(S(=O)(=O)N2CCCCC2)cn1,"inconclusive: 44.7 µM [fluorescent, side channel, partial curve, poor fit]",–
CCC(c1nnnn1Cc1ccco1)N(Cc1ccccc1OC)Cc1cc2cc(C)ccc2[nH]c1=O (centres undefined),–,inactive: 1.59%
CCN1C(=O)CC(N2CCC(Nc3ccc(OC)cc3)CC2)C1=O (centres undefined),–,inactive: -0.327%
Brc1ccc(CSc2nnc(Cc3c[nH]c4ccccc34)o2)cc1,–,inactive: 0.912%
COc1cccc(OC)c1-c1nn2c(-c3ccco3)nnc2s1,–,inactive: -3.27%
O=C(OCCN1C(=O)c2cccc3c(N4CCOCC4)ccc(c23)C1=O)c1ccc(Cl)cc1,"inconclusive: 79.4 µM [fluorescent, side channel, partial curve]",–
